Results from PubChem BioAssay AID1240 (Sanford-Burnham Center for Chemical Genomics, 2008).
Screen size: about 50,000 compounds; about 800 (1.6%) showed an effect of 50% or more. The list shows a part of the results.

Molecular target: Bcl-2-like protein 10 (Homo sapiens) (UniProt Q9HD36)
Experiment: TR3 peptide-Bcl-B binding displacers, biochemical primary FP assay, phenotype converters (AID 1240);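 further: 0% = Bcl-B with tracer peptide and DMSO and 100% = tracer peptide lacking Bcl-B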
Settings: GST-Bcl-B / FITC-TR3 peptide fluorescence polarization; stronger effect = higher value; compound at 3.75 mg/L

UniProt Q9HD36, sequence (Q9HD36 whole entry, looked up): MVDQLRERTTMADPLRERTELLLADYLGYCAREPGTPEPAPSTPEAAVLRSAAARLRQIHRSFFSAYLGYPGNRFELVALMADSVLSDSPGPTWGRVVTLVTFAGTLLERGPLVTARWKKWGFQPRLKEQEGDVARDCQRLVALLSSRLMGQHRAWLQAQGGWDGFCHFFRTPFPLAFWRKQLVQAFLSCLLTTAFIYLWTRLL

Row | SMILES | displacement
1 | CC(C)Oc1ccc2c(-c3ccccc3)cc(=O)oc2c1 | 13.7%
2 | Cc1ccccc1N1C(=O)c2ccc(C(=O)O)cc2C1=O | -3.3%
3 | Cc1cc(C)nc(SCC(=O)N/N=C/c2ccc(Cl)cc2Cl)n1 | 4.5%
4 | O=C(Nc1ccccc1Cl)c1ccco1 | 9%
5 | O=c1[nH]c(=O)n(-c2ccccc2)c(O)c1C(c1cccnc1)c1c(O)n(-c2ccccc2)c(=O)[nH]c1=O | -5%
6 | O=C(c1ccc(F)cc1)N1CCN(c2c(Cl)cccc2[N+](=O)[O-])CC1 | 2.7%
7 | C/C(=N\Nc1nc(-c2ccc(Br)cc2)cs1)c1nonc1C | -8.4%
8 | COC(=O)C1=C(C)NC(=O)CC1c1ccc(OC)cc1 (configuration not stated) | 6.5%
9 | CC(C)CSc1nnc(-c2ccc(Br)cc2)o1 | 13%
10 | CCOc1ccc(NC(=O)CN(c2ccc(C)c(Cl)c2)S(C)(=O)=O)cc1 | 6.8%
11 | C=CCc1cc(S(=O)(=O)c2ccc(O)c(CC=C)c2)ccc1O | 0.9%
12 | COc1ccc(N2C(=O)/C(=C\c3ccsc3)SC2=S)cc1 | 11.4%
13 | COc1ccc(O)c(-c2c(-c3ccc(C)cc3)n[nH]c2C)c1 | 1%
14 | Cc1cc(C)n(-c2nc(N(C)C)nc(N(C)C)n2)n1 | -4.6%
15 | CCCOc1ccc(C(=O)NCCN2CCOCC2)c(O)c1 | 5.7%
16 | O=C(CCNc1cccc(C(F)(F)F)c1)c1cccc([N+](=O)[O-])c1 | -13%
17 | COc1ccccc1C(O)c1cnc(C(C)C)n1C (configuration not stated) | -8.5%
18 | COc1ccc(N(CC(=O)Nc2ccc(C(C)C)cc2)S(C)(=O)=O)cc1Cl | -3.1%
19 | O=C1/C(=C/c2c[nH]c3ccccc23)CCC/C1=C\c1c[nH]c2ccccc12 | -13.4%
20 | CC1=NN(c2ccccc2)C(=O)C1C(c1ccccc1)C(C#N)C#N (configuration not stated) | 4.6%
21 | Oc1ccc(/C=N\Nc2cc(N3CCOCC3)nc(N3CCOCC3)n2)c(O)c1 | 25%
22 | COc1ccc(OC)c(NC(=O)c2ccc([N+](=O)[O-])cc2Cl)c1 | -4.7%

Row | SMILES | displacement
23 | C=C(C)CSc1nc2sc3c(c2c(=O)n1CC(=C)C)CCC3 | 4.9%
24 | Cc1ccc(S(=O)(=O)Nc2cc(-c3cccc(C)c3)[nH]n2)cc1 | 13.6%
25 | COc1ccc(C2Nc3ccccc3C(=O)N2Cc2ccccc2)cc1Cn1nc(C)c([N+](=O)[O-])c1C (configuration not stated) | 10.6%
26 | Cc1occc1C(=O)Nc1ccc([N+](=O)[O-])cc1Cl | 24.9%
27 | COc1ccc2c(c1)CC/C(=C\c1ccccc1)C2=O | 5.7%
28 | Cn1cccc1CN1CCN(Cc2ccncc2)CC1 | -1.4%
29 | COc1ccc(NC(=O)C2CC(=O)N(c3ccc(Br)cc3)C2)cc1 (configuration not stated) | 15.3%
30 | CCOC(=O)C1=C(c2ccccc2)N=c2s/c(=C\c3ccco3)c(=O)n2C1c1cccc(OC)c1OC (configuration not stated) | 76.4%
31 | O=C(O)c1ccc(/C=N/c2ncn[nH]2)cc1 | 0.7%
32 | C1=CC2CC1CC2CN1CCN(Cc2c[nH]c3ccccc23)CC1 (configuration not stated) | -2.2%
33 | CCOc1cc(OCC)cc(C(=O)Nc2cc(Cl)cc(Cl)c2)c1 | 13.4%
34 | O=S1(=O)N=C(Oc2cccc3ccccc23)c2ccccc21 | -7.8%
35 | CCOC(=O)c1ccc(NC(=O)CN(c2cccc(Cl)c2)S(=O)(=O)c2ccccc2)cc1 | 6.6%
36 | COc1cc(NC(=O)c2ccc(C)c([N+](=O)[O-])c2)ccc1NC(=O)c1ccco1 | 5.1%
37 | COC(=O)c1sccc1NC(=O)COc1ccc(Cl)cc1 | -6.5%
38 | FC(F)C(F)(F)C(F)(F)C(F)(F)c1cc(-c2ccccc2)n[nH]1 | 13.9%
39 | COc1ccc(CN2CCN(C(=O)CC(C)C)CC2)cc1OCc1ccccc1 | 4%
40 | COc1cccc(C2/C(=C(\O)c3ccc(Cl)cc3)C(=O)C(=O)N2CCCn2ccnc2)c1 (configuration not stated) | -5.2%
41 | CCC1=NN2C(=N)/C(=C/c3ccc(-c4ccccc4[N+](=O)[O-])o3)C(=O)N=C2S1 | 1.5%
42 | Cc1ccc(S(=O)(=O)Nc2cccc3ccccc23)cc1[N+](=O)[O-] | 6.1%
43 | COc1ccc(OC)c(N(CC(=O)O)S(C)(=O)=O)c1 | -0.4%
44 | CC1CC(Nc2ccccc2)c2ccccc2N1C(=O)COc1ccc2ccccc2c1 (configuration not stated) | -18.1%

Row | SMILES | displacement
45 | Clc1cccc(C=Nc2ccc(N=Cc3cccc(Cl)c3Cl)cc2)c1Cl | -14%
46 | CCOc1cc(OCC)cc(C(=O)Nc2cccc(S(N)(=O)=O)c2)c1 | 8.5%
47 | Cc1ccnc(N2C(=O)c3ccc(C(=O)O)cc3C2=O)c1 | 1.9%
48 | CCOc1cc(-c2nnc(-c3ccc(Br)o3)o2)cc(OCC)c1OCC | 22.7%
49 | O=C(Nn1cnnc1)c1cccc(Cl)c1 | 4.5%
50 | Cc1cc2nc3s/c(=C\c4cc5c(cc4[N+](=O)[O-])OCO5)c(=O)n3c2cc1C | -0.7%
51 | CN1CCN(CCCOc2ccc(Br)cc2)CC1 | -8.4%
52 | COc1ccc(OC)c(NC(=O)c2cc(-c3cccc(Br)c3)nc3ccccc23)c1 | 25.1%
53 | CC(=O)Nc1ccc(C(=O)Nc2ccc(Br)cc2)cc1 | 3%
54 | COc1ccc(S(=O)(=O)Nc2ccc(Oc3ccccc3)cc2)cc1 | -4.9%
55 | O=C(O)c1cc2nc(-c3ccc4c(c3)OCO4)cc(C(F)(F)F)n2n1 | 7.3%
56 | CC(C)Oc1ccccc1NC(=O)CSc1nnc(-c2cccc(F)c2)n1-c1ccccc1 | -16.2%
57 | O=S(=O)(c1ccc(Cl)cc1)N1CCOC(c2ccccc2)C1 (configuration not stated) | 17.7%
58 | O=C(Nc1ccc(Cl)c(-c2nc3ccccc3[nH]2)c1)c1ccncc1 | 0.1%
59 | O=C(CN(c1cccc([N+](=O)[O-])c1)S(=O)(=O)c1ccccc1)N[C@@H]1CCCC[C@H]1O | 8.2%
60 | O=S(=O)(c1ccc(Cl)cc1)N1CCN(C2CCCCCC2)CC1 | -2.3%
61 | COc1ccc(NC(=O)COc2cc(C)c(Cl)c(C)c2)cc1OC | 11.1%
62 | COCCOC(=O)c1ccc(NC(=O)c2ccc(-c3ccccc3)cc2)cc1 | -5.1%
63 | O=C(C(=Cc1ccc(-c2ccc(Br)cc2)o1)C(=O)c1ccccc1)c1ccccc1 | 11.9%
64 | Cc1cc(C=C2C(=O)c3ccccc3C2=O)c(C)n1-c1cccnc1 | -15.5%
65 | CCN1C(=O)/C(=C/c2cccc(OC(=O)c3ccccc3I)c2)SC1=S | 10.5%
66 | O=C(COc1ccc([N+](=O)[O-])cc1)Nc1ccc(OC(F)(F)F)cc1 | -16.7%

Row | SMILES | displacement
67 | COc1ccc(N=Cc2c(O)c3ccccc3n2C(C)=O)cc1 | -6.8%
68 | Cc1ccc(O)c(/C=C2\Sc3ccccc3C2=O)c1 | -8.7%
69 | CC(/C=C/c1ccco1)=N/NC(=O)CNc1ccc(C)cc1 | -12.5%
70 | CCN1C(=O)/C(=C2\SC(=S)N(NC(=O)c3ccccc3Cl)C2=O)c2ccccc21 | 13.6%
71 | O=C(O)/C=C/c1cccc(/C=C/C(=O)O)c1 | -7.2%
72 | CCC(=O)c1ccc(N2CCN(C(=O)CC)CC2)c(F)c1 | -11.2%
73 | O=c1c2c3c(sc2ncn1/N=C/c1ccccc1)CCCC3 | 10.6%
74 | COc1ccc(-c2cc(C(=O)N/N=C(\C)c3ccc([N+](=O)[O-])cc3)[nH]n2)cc1 | 1.5%
75 | Cc1ccc(N(CC(=O)NCCOc2ccc(F)cc2)S(=O)(=O)c2ccccc2)cc1C | -8.4%
76 | C[n+]1cccc(C(O)P(=O)(c2ccccc2)c2ccccc2)c1 (configuration not stated) | -8.7%
77 | C#CC(C)(C)NC(=O)/C=C/c1ccccc1Cl | 7.7%
78 | COc1cc(C=C2C(=O)N(C)C(=O)N(C)C2=O)ccc1OCc1ccccc1Cl | -1.1%
79 | Cc1ccnc(N2C(=O)c3ccc(C(=O)c4ccc5c(c4)C(=O)N(c4cc(C)ccn4)C5=O)cc3C2=O)c1 | 5.1%
80 | O=[N+]([O-])c1ccc2nc(Sc3nnc(-c4ccccc4)n3-c3ccccc3)sc2c1 | 12.9%
81 | O=C(Nc1nc2ccccc2s1)c1ccc(Oc2ccc([N+](=O)[O-])cc2)cc1 | 3.3%
82 | CCc1cccc(NC(=O)c2cccc(F)c2)c1 | -22.5%
83 | C#CCOC(=O)c1ccc(S(=O)(=O)N2CCOCC2)cc1 | -10.4%
84 | COc1ccc(-c2cn(/N=C/c3ccc(Cl)cc3Cl)c(N)n2)cc1 | -7.2%
85 | O=C1C(=O)N(c2nc3ccccc3s2)C(c2cccc(F)c2)/C1=C(/O)c1ccccc1 (configuration not stated) | 6%
86 | C=CCN1C(=O)/C(=C\C=C\c2ccc(N(C)C)cc2)SC1=S | -15.3%
87 | O=C(CSc1cccc2cccnc12)N1CCCCC1 | -10.1%
88 | CC(C)COc1ccc(C(=O)Nc2ccc([N+](=O)[O-])cc2)cc1 | 12.6%

Row | SMILES | displacement
89 | CCN(CC)CCCNC(=O)c1ccc(Cl)cc1[N+](=O)[O-] | 9.6%
90 | CCC(C(=O)Nc1ccccc1Cl)c1ccccc1 (configuration not stated) | 0.1%
91 | COc1cccc(NC(=O)/C=C/c2cccc([N+](=O)[O-])c2)c1 | -8.6%
92 | O=[N+]([O-])c1cc(C2N(c3ccccc3)CCN2c2ccccc2)ccc1Cl | -5.4%
93 | COc1cc(NC(=O)c2ccc(OCc3ccccc3)cc2)ccc1NC(=O)c1ccco1 | 0.4%
94 | CCOC(=O)C1=C(C)NC2=C(C(=O)CCC2)C1c1ccc(OCc2cccc(F)c2)c([N+](=O)[O-])c1 (configuration not stated) | 6.8%
95 | N=c1n(CCOc2ccccc2)c2ccccc2n1CCN1CCOCC1 | -5.8%
96 | COC(=O)c1c(N)sc(C)c1-c1ccc(C)cc1 | -8.5%
97 | CCN(CC)c1ccc(NC(=O)COc2cccc(C)c2)cc1 | 12.7%
98 | Cc1ccc(-c2csc(NC(=O)C3C4CCC(C4)C3C(=O)O)n2)c(C)c1 (configuration not stated) | -0.1%
99 | CCCc1c(O)nc(SCCN(C)C)[nH]c1=O | 3%
100 | CC(C(=O)N1CCN(Cc2ccc(Cl)cc2)CC1)N1C(=O)c2ccccc2C1=O (configuration not stated) | -8.7%
101 | NC(=O)c1cc(NC(=O)c2cc3ccccc3cc2O)cc(C(N)=O)c1 | -4.2%
102 | O=C1c2ccccc2-c2onc3c(Cl)cc(Sc4ccccc4)c1c23 | 8.4%
103 | COc1cc2c(cc1NC(=O)c1cccc([N+](=O)[O-])c1)oc1ccccc12 | -4.6%
104 | COc1ccc(/C=C/C(=O)Nc2scc(-c3cccs3)c2C(=O)O)cc1OC | 15.3%
105 | COCCCNS(=O)(=O)c1ccccc1[N+](=O)[O-] | -2.7%
106 | CCOC(=O)C1=C(C(=O)OCC)SC(=C2C(=S)C(C)(C)N(C(=O)c3ccc(OC)cc3)c3ccccc32)S1 | -6%
107 | CC(=O)Nc1ccccc1NC(=O)c1ccc(F)cc1 | 8.5%
